# Measured values taken from PubChem BioAssay AID652106 (National Center for Advancing Translational Sciences (NCATS), 2013).
# Screen size: about 370,000 compounds; about 500 (0.14%) were called active. The shares of active, inactive and inconclusive entries below differ from those in the screen. Calls follow the shape of the dose curve; as a rule, active = well fitted activation curve with a large enough effect; inconclusive = small, poorly fitted or top-dose-only effect; inactive = no such curve, though single readings can be large or run the other way. No potency is given beside an inconclusive call; the fits are too rough.
# Test: qHTS of alpha-syn Inhibitors; also: nearly all actives have a fitted effect of over 65% in size; as to growth rescue (activation): % of control where 0% means no effect
# Settings: Yeast expressing alpha-synuclein, BacTiter-Glo, 24 h; Potency: growth rescue unless noted; growth rescue (activation): at 46.1 µM (top of the series) unless noted
# Text: The goal of this project is to identify new chemical probes capable of reversing the toxicity associated with the Parkinson disease-related protein, alpha-synuclein. Compounds will be selected on their ability to restore growth in yeast cells expressing toxic levels of alpha-synuclein. These compounds will provide a complementary approach to deciphering the tangled mechanisms of toxicity and protection that we have uncovered through genome-wide genetic screens and are beginning to uncover in a large-scale proteomics analysis with mass spectroscopy. To this end, a miniaturized assay was developed to be screened against the Molecular Libraries Small Molecule Repository (MLSMR) to discover alpha-synuclein inhibitors. Please note that in the set-up this yeast-based assay compounds that inhibit as alpha-syn, have a read-out as activators. NIH Chemical Genomics Center [NCGC] NIH Molecular Libraries Probe Centers Network [MLPCN] MLPCN Grant: NS060957 Assay Submitter (PI): Susan Lindquist, Whitehead Institute/MIT
# Dispense 2.5 microL yeast galactose medium per 1536-well plate, pin compound, dispense 2.5 microL alpha-synuclein expressing yeast in galactose medium at OD600=0.02 (pregrown in raffinose medium to mid-log phase) per well, incubate for 24 hr at 30 deg C, and cell growth will be measured using 5 microL of Bactiter/Glo reagent to entire plate and read using Luminescence Protocol in ViewLux.
# Potency is read from the fitted curve at half-maximal effect; tags tell the direction and shape of the fitted curve.
SMILES,Potency,growth rescue (activation)
O=C(Nc1ccc(CN2CCOCC2)cc1)c1ccc(-c2cc(Cl)ccc2Cl)o1,inactive,–
O=C1c2nccnc2C(=O)N1Cc1ccccc1,active: 12.6 µM,–
COc1ccc(C(CC(=O)Nc2ccc(C)c(C)c2)N2Cc3ccccc3C2=O)cc1OC (configuration not stated),"inconclusive [activator, single point]",–
COc1ccc(Cl)cc1C(=O)CSc1nnnn1C1CCCC1,"inconclusive [activator, full curve]",–
Cc1nc(S(=O)(=O)c2ccc(Br)cc2)nc2c1CCC2,"inconclusive [activator, single point]",–
O=C(/C=C/c1ccco1)Nc1ccccc1N1CCCC1,"inconclusive [activator, single point]",–
CCOc1ccccc1NC(=O)CN1C(=O)CC(c2ccco2)Sc2ccccc21 (configuration not stated),"inconclusive [activator, single point]",–
Cc1cc(C)cc(NC(=O)/C=C/c2ccc([N+](=O)[O-])s2)c1,inactive,–
COc1ccc(S(=O)(=O)Nc2cccc3ccccc23)cc1,inactive,–
O=c1nc(N/N=C/c2ccccn2)cn[nH]1,"inconclusive [activator, single point]",–
O=C(NCc1ccncc1)C(=O)Nc1nc2ccccc2s1,inactive,–
Cc1ccc(C)c(S(=O)(=O)N2C(=S)NC(=O)C2CC(C)C)c1 (configuration not stated),"inconclusive [activator, single point]",–
O=C1SC(SCc2ccccc2)=N/C1=C\c1ccco1,inactive,–
COc1ccc(OC)c(S(=O)(=O)NCCc2sc(-c3ccc(C)cc3)nc2C)c1,"inconclusive [activator, single point]",–
CN(C)S(=O)(=O)Oc1cc(Cl)ccc1C(=O)Nc1ccc(F)cc1F,"inconclusive [activator, single point]",–
CCOc1ccc(CCN2C(=O)c3cccnc3C2=O)cc1OCC,"inconclusive [activator, single point]",–
c1cc2c3c(cccc3c1)NC1(CCC3(CC1)Nc1cccc4cccc(c14)N3)N2,"inconclusive [activator, single point]",–
CCCCOC(=O)c1cccc(NC(=O)CC)c1,inactive,–
CCCCN(C)C(=O)C1CCCN(S(=O)(=O)c2ccc3c(c2)CC(C)N3C(=O)C2CC2)C1 (configuration not stated),inactive,–
O=C(O)/C=C/C(O)c1ccc(Cl)cc1 (configuration not stated),"inconclusive [activator, single point]",–
Cn1c(=O)c2c(nc(CN3CCN(CCO)CC3)n2Cc2ccccc2Cl)n(C)c1=O,"inconclusive [activator, single point]",–
Cc1[nH]c(-c2ccccn2)nc(=S)c1Cl,"inconclusive [activator, single point]",–
COc1ccc(C(=O)c2c(C(F)(F)F)oc3c2C(=O)c2ccccc2C3=O)cc1,–,inconclusive: -42% [activator]
CC(C)[C@H](COC=O)NC(=O)[C@H]1O[C@@H](n2ccc(N)nc2=O)[C@H](O)[C@@H]1O,inactive,–

SMILES,Potency,growth rescue (activation)
CC(=O)c1ccccc1NC(=O)COC(=O)C1CCCN1S(=O)(=O)c1ccccc1F (configuration not stated),active: 14.1 µM,–
CC1(C)CC2CC(C)(CN2C(=O)COC(=O)c2cc(Cl)cc(Cl)c2N)C1 (configuration not stated),inactive,–
COc1cc2c(cc1OC)C(C)N(C(=O)c1cc3c(=O)oc4ccc(C)cc4c3s1)CC2 (configuration not stated),"inconclusive [activator, single point]",–
Cc1ccnc(SCc2cc(=O)c(OC(=O)c3ccco3)co2)n1,"inconclusive [activator, single point]",–
COCc1cccc(-c2csc(C(N)c3ccc(F)c(F)c3)n2)c1 (configuration not stated),inactive,–
O=C1c2ccccc2-c2onc3ccc(Oc4ccccc4)c1c23,"inconclusive [activator, partial curve]",–
CC1(C)Cc2cccc(OCC(=O)Nc3ccccc3F)c2O1,"inconclusive [activator, single point]",–
CCCCCn1c(=N)c(S(=O)(=O)c2ccc(C)cc2)cc2c(=O)n3cc(C)ccc3nc21,"inconclusive [activator, single point]",–
COc1ccc(CCNC(=O)c2c(N)no[n+]2[O-])cc1OC,inactive,–
Oc1c(Cl)cc(Cl)c2cccnc12,"inconclusive [activator, single point]",–
COc1cc(NC(=O)COc2cc(C)cc3oc(=O)cc(C)c23)cc(OC)c1OC,"inconclusive [activator, single point]",–
CCCCNC(=O)c1nc(C2CCN(S(=O)(=O)c3ccc(S(C)(=O)=O)cc3)CC2)oc1-c1ccccc1,"inconclusive [activator, single point]",–
CCCCCCCCN1C(=O)[C@H](CC(=O)N2CCC(c3ccccc3)CC2)C[C@@]2(C(=O)OC)CCCCC=C12,"inconclusive [activator, single point]",–
O=C(Oc1cccc(NC(=O)c2ccccc2Cl)c1)c1ccc([N+](=O)[O-])cc1,inactive,–
Cc1ccc(Cn2nnc3c(=O)[nH]c(C(=O)NCc4ccco4)nc32)cc1,inactive,–
CCOC(=O)/C(O)=C/c1ncc(C(F)(F)F)cc1Cl,"inconclusive [activator, single point]",–
COc1cccc(/C=C/c2ccc3cccc(O)c3n2)c1OC,active: 17.8 µM,–
COc1ccc(CCN(Cc2cccs2)S(=O)(=O)c2ccc(-n3cnnn3)cc2)cc1OC,"inconclusive [activator, single point]",–
CCc1cc(-c2onc(C)c2-c2cscn2)c(O)cc1OC,"inconclusive [activator, single point]",–
COc1ccc(-n2c(-c3cnccn3)n[nH]c2=S)cc1,active: 3.55 µM,–
CCC(CC)C(=O)Nc1nnc2n1CCS2,"inconclusive [activator, single point]",–
O=C(OCC(=O)N1CCN(C(=O)c2ccco2)CC1)c1c(Cl)cccc1Cl,"inconclusive [activator, single point]",–
Cn1c(SCC(=O)Nc2ccccc2F)nnc1-c1cc2ccccc2o1,"inconclusive [activator, single point]",–
O=[N+]([O-])c1ccc(/C=N/Nc2nc(-c3ccccc3)c3cc(Br)ccc3n2)o1,inactive,–

SMILES,Potency,growth rescue (activation)
COC(=O)C[C@H]1CC[C@H](NC(=O)Cc2ccccc2)[C@@H](CO)O1,"inconclusive [activator, single point]",–
CCc1ccc2occ(CC(=O)Nc3ccc(OC)c(Cl)c3)c2c1,"inconclusive [activator, single point]",–
Nc1c(C(=O)NCc2ccco2)c2nc3ccccc3nc2n1CCc1ccccc1,"inconclusive [activator, single point]",–
Cc1ccc(O)c(-c2cc3ccccc3[nH]2)c1,inactive,–
N#CCC(=O)N/N=C/c1ccc(N2N=C(c3ccccc3)CC2c2ccccc2)cc1 (configuration not stated),inactive,–
CCCCOc1ccc(C(=O)Nc2cccc(C)n2)cc1,inactive,–
CN(Cc1ccc(Cl)s1)C(=O)CCl,inactive,–
CNc1c(Cl)cc(/C=C2\C=Cc3ccccc32)cc1Cl,inactive,–
COc1ccc(-c2csc3ncnc(N4CCN(C(=O)c5ccco5)CC4)c23)cc1,"inconclusive [activator, single point]",–
Cc1nc(N2CCN(c3ccccn3)CC2)c2c(C)c(C(=O)N3CCN(c4ccccc4F)CC3)sc2n1,"inconclusive [activator, single point]",–
O=C(Nc1ccc(-c2nc3cccnc3s2)cc1)c1cccnc1Cl,"inconclusive [activator, single point]",–
Cc1ccc2nc(C)cc(SCC(=O)N/N=C/c3ccco3)c2c1,inactive,–
CCCCCCn1c(=O)[nH]c2c(c1=O)CCC2,"inconclusive [activator, single point]",–
Nc1nc2ccccc2cc1S(=O)(=O)c1ccccc1,"inconclusive [activator, partial curve]",–
COc1ccc(-c2noc(CNC(=O)CCCN3C(=O)[C@H]4CC=CC[C@H]4C3=O)n2)cc1,"inconclusive [activator, single point]",–
CN(Cc1ccc(Cl)cc1Cl)C(=O)c1cccc(S(=O)(=O)NCc2ccccc2)c1,"inconclusive [activator, single point]",–
COc1nc2ccccc2nc1N1CCN(Cc2ccc3c(c2)OCO3)CC1,inactive,–
CCc1ccccc1NC(=O)CCC(=O)N1CCSc2ccccc21,"inconclusive [activator, single point]",–
COCCNC(=O)C1(C)Cc2c(-c3cccc(C(F)(F)F)c3)ccnc2O1 (configuration not stated),"inconclusive [activator, single point]",–
Cc1cccc2cc(CN(C(=O)c3cnccn3)C3CCCCC3)c(Cl)nc12,"inconclusive [activator, single point]",–
COc1ccc(S(=O)(=O)N2CCCC(C(=O)NCc3cccnc3)C2)cc1C (configuration not stated),"inconclusive [activator, single point]",–
O=C(c1cc(C2CC2)nn1-c1ccccc1)N1CCN(S(=O)(=O)c2ccccc2F)CC1,"inconclusive [activator, single point]",–
CC(=O)n1c2c(c3ccccc31)OC(N)=C(C#N)C2c1ccc(C(C)C)cc1 (configuration not stated),active: 20 µM,–
Cc1nnc(NC(=O)CSc2nnc(Cc3cccn3C)n2-c2ccccc2)s1,"inconclusive [activator, single point]",–
